Where “and” joins values, the source holds several entries; their conditions need not be identical. Identical values can stand only once. Among all 150,000 compounds or so, about 6,500 (4.3%) were called active. Inconclusive means that the source gave no clear call. Such entries were picked first, then a sample of the others. Calls come from the whole dose curve; as a rule, active = well fitted inhibition curve with a large enough effect (not every such curve was filed as active); inconclusive = small, poorly fitted or top-dose-only effect, or another doubt; inactive = no such curve, though single readings can be large or run the other way. Potencies of inconclusive entries are left out as doubtful fits.
target: 15-hydroxyprostaglandin dehydrogenase [NAD(+)] (Homo sapiens) (UniProt P15428); assay: qHTS Assay for Inhibitors of HPGD (15-Hydroxyprostaglandin Dehydrogenase); conditions: purified HPGD, NADH fluorescence kinetic, PGE2 substrate; activity change, negative = inhibition: active compounds read low
How it was run: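 NADH formation kinetics: reaction with 30 uM PGE2 and 1 mM NAD+ (final), 20 nM enzyme, Tris-HCl pH 8 with Tween 20, after 15 min compound preincubation at room temperature. Fluorescence change, last versus first of five reads.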
% is set by controls: 0 for no effect and ±100 for the full control effect; potency is the fitted concentration of half-maximal effect; tags give direction and shape of the fitted curve.

Chain of UniProt P15428 (P15428 whole entry, looked up): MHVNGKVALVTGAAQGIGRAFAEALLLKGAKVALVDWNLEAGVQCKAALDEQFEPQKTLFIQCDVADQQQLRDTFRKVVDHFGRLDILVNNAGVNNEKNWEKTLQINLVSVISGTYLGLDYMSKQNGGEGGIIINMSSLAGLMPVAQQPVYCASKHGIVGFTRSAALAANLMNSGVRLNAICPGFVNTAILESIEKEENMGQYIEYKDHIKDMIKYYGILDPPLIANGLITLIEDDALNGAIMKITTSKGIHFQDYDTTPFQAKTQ

SMILES | Potency | activity change, negative = inhibition
Cc1nc(NC(=O)c2cccc(-c3cc4ccccc4oc3=O)c2)ccc1Br | inconclusive [inhibitor, partial curve] | 
COc1ccc(Nc2nc(CN3CCOCC3)nc3sc4c(c23)CCC(C)C4)cc1OC (stereo unspecified) |  | inactive: -4.1%
Cn1nnnc1SCC(=O)N1c2ccccc2CCc2ccccc21 |  | inactive: 3.69%
COc1ccc(-c2cc(C(=O)O)c3ccccc3n2)c(OC)c1 |  | inactive: -2.15%
O=C(NCC1CCCO1)c1sc2ccccc2c1Cl (stereo unspecified) | active: 8.91 µM | 
O=C(COc1cccc(NC(=O)c2cccc([N+](=O)[O-])c2)c1)c1ccc(Br)cc1 | inconclusive [inhibitor, partial curve] | 
CCCCN(CC)C(=O)c1ccc(-c2ccccc2)cc1 | active: 2 µM | 
CCCCOC(=O)Nc1cc(C(=O)OC)ccc1C(=O)OC | inconclusive [inhibitor, single point] | 
COc1ccc(NC(=O)C=C(C)C)cc1Cl | active: 17.8 µM | 
N#Cc1cc2cc3c(cc2nc1SCC(=O)OC1CCCCC1)OCO3 | inconclusive [inhibitor, partial curve] | 
Nc1ccccc1-c1nc2ccccc2[nH]1 | inconclusive [inhibitor, partial curve] | 
Cc1cccc(N2C(=O)CC(N3CCN(Cc4ccc5c(c4)OCO5)CC3)C2=O)c1 (stereo unspecified) |  | inactive: -1.09%
Cc1nn(-c2ccc(F)cc2)c2c1cc(C#N)c1nc3ccccc3n12 | inconclusive [inhibitor, partial curve, poor fit] | 
Cc1cc(-n2c(C)cc(C(=S)N3CCOCC3)c2C)ccc1Br | active: 10 µM | 
COc1nccnc1NS(=O)(=O)c1ccc(N=Cc2c(C)[nH]n(-c3ccc(C)c(C)c3)c2=O)cc1 | active: 22.4 µM | 
COc1ccc(-c2ccccc2)cc1NCc1ccccc1C | inconclusive [inhibitor, single point] | 
Cc1ccc2nc(-c3ccc(NC(=O)C4CCCO4)cc3)[nH]c2c1 (stereo unspecified) | inconclusive [inhibitor, partial curve] | 
COc1cccc(-n2c(SCC(=O)NCCC3=CCCCC3)nc3n[nH]c(C)c3c2=N)c1 |  | inactive: -17%
COc1cccc2cc(/C(C)=N/Nc3nc(-c4cc(C)ccc4C)cs3)c(=O)oc12 | active: 31.6 µM | 
Cn1c(-c2ccc3nc(N)sc3c2)nc2cc(N)ccc21 | inconclusive [inhibitor, partial curve, poor fit] | 
NC1=NC(=O)C(CC(=O)c2ccc(Cl)cc2)S1 (stereo unspecified) |  | inactive: -4.19%
CN(CCOc1ccc(-c2ccn(S(=O)(=O)c3cccc4ccccc34)n2)cc1)c1ccccn1 |  | inactive: -14.2%
COC(=O)c1[nH]c2cccc(OC)c2c1NC(=O)CCN1CCC(C(N)=O)CC1 | inconclusive [inhibitor, partial curve] | 

SMILES | Potency | activity change, negative = inhibition
O=S(=O)(NC1CCCCC1)c1ccc(Cl)s1 | inconclusive [inhibitor, partial curve] | 
CCOc1ccc(OCc2ccc(C(=O)N3CCOCC3)cc2)cc1 | active: 15.8 µM | 
Cc1ccc(C(=O)OCn2ncc(Cl)c(Cl)c2=O)cc1 | active: 28.2 µM | 
CN(C)S(=O)(=O)c1ccc(N2CCCC2)c(C(=O)Nc2nc3ccc(F)cc3s2)c1 | inconclusive [inhibitor, partial curve] | 
CCOC(=O)c1oc2ccccc2c1NC(=O)c1cccc(OC)c1 | inconclusive [inhibitor, single point] | 
Cc1csc(N/N=C/c2ccc(O)c([N+](=O)[O-])c2)n1 | inconclusive [inhibitor, partial curve] | 
CCc1cc(=O)oc2cc(OCC(=O)OC)c(Cl)cc12 | inconclusive [inhibitor, partial curve] | 
Cc1ccc(NS(=O)(=O)c2cc(C(=O)Nc3cccc(N(C)S(C)(=O)=O)c3)ccc2C)c(C)c1 |  | inactive: -5.12%
O=C(Nc1ccc(F)cc1)OCCN1CCN(Cc2ccccc2)CCC1=O |  | inactive: -12.5% and inactive: -10.8%
COc1ccccc1NC(=O)c1ccc(NC(=O)c2cc3c(s2)CCC3)cc1 | inconclusive [inhibitor, single point] | 
O=C1S/C(=C\c2ccc(N3CCOCC3)o2)C(=O)N1Cc1c(F)cccc1Cl | inconclusive [inhibitor, single point] | 
COc1cccc(CNC(=O)c2ccccc2N)c1 | inconclusive [inhibitor, partial curve] | 
O=C(CSc1ccc(Cl)cc1)NC1CCCC1 | active: 10 µM | 
CCC(C)(C)NC(=S)Nc1ccc(-c2nc3ccc(C)cc3s2)cc1 | inconclusive [inhibitor, partial curve, poor fit] | 
O=C1OCc2cccc3cccc1c23 | inconclusive [inhibitor, partial curve] | 
CCOc1cc2c(C#N)c(N3CCNCC3)nc(N)c2c(N)n1 | inconclusive [inhibitor, partial curve] | 
CCn1c(C(=O)N2CCc3ccccc3C2)cc2oc3ccccc3c21 | inconclusive [inhibitor, full curve] | 
Cc1ccc(C(=O)NCC(=O)Nc2ccccc2C(F)(F)F)cc1 |  | inactive: -10.6%
CN1c2ccccc2C(C)(C)[C@]12C=Cc1cc(O)ccc1O2 |  | inactive: -13.7%
Cc1ccc(C)c(N(CC(=O)Nc2ccccc2C(=O)NCc2ccco2)S(=O)(=O)c2ccccc2)c1 | inconclusive [inhibitor, single point] | 
CC(C)(C)NC(=S)Nc1ccc(Nc2ccccc2)cc1 | inconclusive [inhibitor, single point] | 
COc1ccc(C(C(=O)NC(C)(C)C)N(C(=O)CNC(=O)c2cccs2)c2ccc(C)cc2)cc1OC (stereo unspecified) |  | inactive: -9.75%
COC(=O)c1sccc1NC(=O)c1ccc(OC)c(OC)c1 | inconclusive [inhibitor, single point] | 

From PubChem BioAssay AID894 (National Center for Advancing Translational Sciences (NCATS), 2007)
